Laboratory results as given in the supplement of paper PMC11125491.
± gives the standard deviation of the averaged measurements. Growth of baker's yeast expressing single-residue variants of Pneumocystis jirovecii dihydrofolate reductase in 8.8 or 44 µM methotrexate (about 75% and 90% inhibition of the wild type). Selection coefficient per generation; 0 = like wild type, above 0 = less sensitive, below 0 = more sensitive or loss of function. No active / inactive call per row; the paper calls resistant above 0.220 (8.8 µM) or 0.243 (44 µM) together with a significance test. At 44 µM about 15% of codons end with one read or none, so the lowest values are floors (replicate rank correlation 0.74; 0.94 at 8.8 µM).

B1: UniProt A0EPZ9; numbered along this chain (parent)
chain: MDWQKSLTLIVALTLSRGIGLKNDLPWKLKSDMMFFSRVTSGLLVTRSTGQMNVVLMGRKTWESLPAHSRPLKNRINVVISRQEVLDLGGGAYHARSLDDALALLSQIYDSTSKIQLNRVFVIGGGELCKAAMEHSRLNRIIATVIHNEVDCDVFFPIDFRSSQSCLPWRKQDHSVLEAWVGSKVPQGKINENGFIYEFEMWIRDI

Variants of: B1
Assay: selection coefficient against synonymous wild-type codons (log2 per generation); higher = faster growth than wild type
Conditions: with Saccharomyces cerevisiae carrying the variant on a plasmid
Experimental: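 Pooled growth of yeast carrying single-residue variants of P. jirovecii dihydrofolate reductase (own DFR1 gene intact), two passages at 30 °C, three cultures, sequenced before and after. Codons with under 15 starting reads are left out; codons of one change are averaged.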

| Variant | selection coefficient against synonymous wild-type codons (log2) (methotrexate 8.8 µM) | selection coefficient against synonymous wild-type codons (log2) (methotrexate 44 µM) |
| --- | --- | --- |
| H147C | -0.111 ± 0.028 | -0.225 ± 0.021 |
| H147S | -0.0106 ± 0.046 | -0.0612 ± 0.11 |
| H147N | -0.0764 ± 0.016 | -0.0771 ± 0.12 |
| H147V | -0.215 ± 0.052 | -0.369 ± 0.11 |
| H147R | -0.0265 ± 0.04 | -0.17 ± 0.13 |
| H147Q | -0.0512 ± 0.062 | -0.119 ± 0.11 |
| H147Y | -0.225 ± 0.2 | -0.214 ± 0.15 |
| H147A | -0.183 ± 0.064 | -0.156 ± 0.18 |
| I146Q | 0.585 ± 0.065 | 0.823 ± 0.059 |
| I146R | -0.634 ± 0.15 | -0.305 ± 0.11 |
| I146A | 0.42 ± 0.038 | 0.487 ± 0.033 |
| I146M | 0.219 ± 0.042 | 0.188 ± 0.051 |
| I146Y | 0.106 ± 0.052 | 0.373 ± 0.034 |
| I146N | 0.532 ± 0.1 | 0.702 ± 0.084 |
| I146H | 0.402 ± 0.064 | 0.693 ± 0.057 |
| I146T | 0.364 ± 0.052 | 0.437 ± 0.092 |
| I146W | -0.477 ± 0.077 | -0.378 ± 0.16 |
| I146L | 0.0458 ± 0.08 | -0.0139 ± 0.13 |
| I146P | -0.485 ± 0.086 | -0.262 ± 0.097 |
| I146D | -0.511 ± 0.096 | -0.351 ± 0.025 |
| I146C | 0.237 ± 0.06 | 0.203 ± 0.022 |
| I146G | 0.265 ± 0.057 | 0.372 ± 0.042 |
| I146V | 0.0651 ± 0.039 | 0.0348 ± 0.073 |
| I146F | 0.357 ± 0.016 | 0.427 ± 0.011 |

| Variant | selection coefficient against synonymous wild-type codons (log2) (methotrexate 8.8 µM) | selection coefficient against synonymous wild-type codons (log2) (methotrexate 44 µM) |
| --- | --- | --- |
| I146S | 0.352 ± 0.055 | 0.471 ± 0.053 |
| I146K | -0.337 ± 0.06 | -0.168 ± 0.082 |
| I146E | 0.0139 ± 0.084 | 0.285 ± 0.097 |
| V150R | 0.135 ± 0.055 | 0.0356 ± 0.079 |
| V150P | 0.0807 ± 0.053 | -0.0305 ± 0.062 |
| V150D | 0.357 ± 0.021 | 0.296 ± 0.04 |
| V150A | 0.064 ± 0.049 | -0.00536 ± 0.056 |
| V150I | -0.0595 ± 0.04 | -0.148 ± 0.24 |
| V150C | -0.19 ± 0.04 | -0.246 ± 0.01 |
| V150T | 0.0994 ± 0.037 | 0.00459 ± 0.089 |
| V150M | -0.00418 ± 0.033 | -0.106 ± 0.076 |
| V150E | 0.384 ± 0.03 | 0.37 ± 0.033 |
| V150F | -0.107 ± 0.039 | -0.151 ± 0.12 |
| V150H | 0.146 ± 0.014 | 0.0224 ± 0.14 |
| V150W | 0.0816 ± 0.066 | 0.0234 ± 0.049 |
| V150Q | 0.364 ± 0.01 | 0.293 ± 0.14 |
| V150N | 0.346 ± 0.053 | 0.328 ± 0.035 |
| V150S | 0.122 ± 0.045 | 0.0135 ± 0.13 |
| V150L | -0.151 ± 0.042 | -0.308 ± 0.11 |
| V150G | 0.174 ± 0.049 | 0.0945 ± 0.056 |
| V150K | 0.299 ± 0.052 | 0.235 ± 0.03 |
| V150Y | 0.0608 ± 0.018 | 0.00409 ± 0.15 |
| I142G | -0.478 ± 0.077 | -0.155 ± 0.18 |
| I142N | -0.474 ± 0.083 | -0.172 ± 0.06 |

| Variant | selection coefficient against synonymous wild-type codons (log2) (methotrexate 8.8 µM) | selection coefficient against synonymous wild-type codons (log2) (methotrexate 44 µM) |
| --- | --- | --- |
| I142D | -0.765 ± 0.038 | -0.261 ± 0.044 |
| I142M | 0.0728 ± 0.025 | 0.212 ± 0.043 |
| I142F | 0.175 ± 0.024 | 0.359 ± 0.063 |
| I142S | -0.515 ± 0.2 | -0.0675 ± 0.24 |
| I142Y | 0.371 ± 0.027 | 0.65 ± 0.081 |
| I142A | -0.215 ± 0.067 | -0.199 ± 0.08 |
| I142E | -0.724 ± 0.011 | -0.176 ± 0.15 |
| I142C | 0.118 ± 0.034 | 0.52 ± 0.054 |
| I142K | -0.679 ± 0.084 | -0.289 ± 0.07 |
| I142T | -0.466 ± 0.17 | -0.196 ± 0.091 |
| I142W | 0.839 ± 0.024 | 1.41 ± 0.078 |
| I142L | -0.0423 ± 0.059 | 0.0628 ± 0.19 |
| I142R | -0.335 ± 0.19 | 0.161 ± 0.24 |
| I142H | -0.0555 ± 0.023 | 0.0062 ± 0.11 |
| I142Q | -0.189 ± 0.059 | 0.0287 ± 0.013 |
| I142V | -0.0564 ± 0.041 | 0.127 ± 0.24 |
| I142P | -0.745 ± 0.1 | -0.232 ± 0.1 |
| E149Q | -0.0686 ± 0.017 | -0.153 ± 0.21 |
| E149V | -0.228 ± 0.056 | -0.293 ± 0.13 |
| E149G | 0.0182 ± 0.043 | -0.131 ± 0.16 |
| E149R | -0.137 ± 0.065 | -0.212 ± 0.13 |
| E149W | -0.281 ± 0.074 | -0.401 ± 0.12 |
| E149F | -0.422 ± 0.22 | -0.282 ± 0.11 |
| E149C | -0.303 ± 0.11 | -0.348 ± 0.099 |

| Variant | selection coefficient against synonymous wild-type codons (log2) (methotrexate 8.8 µM) | selection coefficient against synonymous wild-type codons (log2) (methotrexate 44 µM) |
| --- | --- | --- |
| E149T | -0.112 ± 0.038 | -0.165 ± 0.23 |
| E149D | 0.0287 ± 0.034 | 0.0616 ± 0.063 |
| E149A | -0.122 ± 0.059 | -0.231 ± 0.061 |
| E149S | -0.087 ± 0.047 | -0.0293 ± 0.2 |
| E149M | -0.334 ± 0.064 | -0.422 ± 0.1 |
| E149N | -0.053 ± 0.1 | -0.194 ± 0.14 |
| E149L | -0.388 ± 0.13 | -0.392 ± 0.095 |
| E149I | -0.316 ± 0.16 | -0.277 ± 0.097 |
| E149K | -0.0972 ± 0.064 | -0.183 ± 0.1 |
| E149P | 0.0576 ± 0.051 | 0.00778 ± 0.1 |
| E149H | -0.138 ± 0.092 | -0.134 ± 0.061 |
| E149Y | -0.309 ± 0.17 | -0.24 ± 0.044 |
| N139P | -0.423 ± 0.12 | -0.226 ± 0.08 |
| N139M | -0.321 ± 0.076 | -0.302 ± 0.12 |
| N139Q | -0.126 ± 0.079 | -0.213 ± 0.045 |
| N139Y | -0.221 ± 0.028 | -0.369 ± 0.042 |
| N139V | -0.315 ± 0.036 | -0.222 ± 0.11 |
| N139L | -0.438 ± 0.088 | -0.247 ± 0.15 |
| N139T | -0.0394 ± 0.057 | 0.00763 ± 0.15 |
| N139K | -0.102 ± 0.028 | -0.144 ± 0.096 |
| N139S | -0.0614 ± 0.018 | -0.0309 ± 0.06 |
| N139W | -0.392 ± 0.1 | -0.332 ± 0.07 |
| N139H | -0.154 ± 0.2 | -0.0271 ± 0.0047 |
| N139G | -0.0367 ± 0.036 | -0.0283 ± 0.054 |

| Variant | selection coefficient against synonymous wild-type codons (log2) (methotrexate 8.8 µM) | selection coefficient against synonymous wild-type codons (log2) (methotrexate 44 µM) |
| --- | --- | --- |
| N139R | -0.246 ± 0.077 | -0.218 ± 0.11 |
| I141E | -0.811 ± 0.05 | -0.281 ± 0.17 |
| I141F | -0.35 ± 0.057 | -0.34 ± 0.051 |
| I141V | 0.074 ± 0.021 | 0.102 ± 0.038 |
| I141G | -0.731 ± 0.13 | -0.33 ± 0.069 |
| I141A | -0.437 ± 0.089 | -0.224 ± 0.046 |
| I141C | -0.108 ± 0.043 | -0.192 ± 0.16 |
| I141S | -0.623 ± 0.11 | -0.187 ± 0.069 |
| I141D | -0.666 ± 0.049 | -0.163 ± 0.039 |
| I141H | -0.568 ± 0.025 | -0.0668 ± 0.057 |
| I141R | -0.708 ± 0.1 | -0.257 ± 0.069 |
| I141W | -0.573 ± 0.08 | -0.363 ± 0.12 |
| I141L | -0.373 ± 0.081 | -0.223 ± 0.099 |
| I141P | -0.72 ± 0.062 | -0.217 ± 0.078 |
| I141Y | -0.596 ± 0.025 | -0.0938 ± 0.052 |
| I141T | -0.399 ± 0.15 | -0.261 ± 0.1 |
| I141K | -0.628 ± 0.11 | -0.168 ± 0.041 |
| I141M | -0.214 ± 0.028 | -0.32 ± 0.088 |
| I141N | -0.767 ± 0.031 | -0.307 ± 0.022 |
| I141Q | -0.699 ± 0.11 | -0.265 ± 0.083 |
